We go through 33 compounds from the supplement of paper PMC6609913.

This experiment deals with V-C8 + BRCA2 (BRCA2-proficient hamster cells). The experiment in a line: normalised cell viability (fraction of plate median); higher = more viable cells (less toxic). Conditions: 5 µM. The method, boiled down: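 In two screens, library drugs at 5 μM were given for 3 days (screen 1) or 6 days (screen 2) to hamster V-C8 cells without BRCA2 and V-C8 cells with BRCA2 restored, seeded 24 h earlier in 96-well plates. A resazurin assay gave the cell viability readout, expressed as modified robust per cent of sample against the plate median, with triplicate wells averaged.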

SMILES strings stand for the structures. Where a name gives a salt, the structure may show the parent alone. ± gives the standard deviation of the averaged measurements. In all, about 1,300 compounds were measured (“normalised cell viability”: median about 1, lowest 2% from about 0.15 on). The list shows a part of the results.

For `Cc1ccsc1/C=C/C1=NCCCN1C` [Morantel tartrate], the normalised cell viability by setting is: (treatment time: 3 days) 1.03 ± 0.024; (treatment time: 6 days) 1.06 ± 0.011.
As to `CN(C)c1ccc(O)c2c1C[C@H]1C[C@H]3[C@H](N(C)C)C(O)=C(C(N)=O)C(=O)[C@@]3(O)C(O)=C1C2=O` [Minocycline hydrochloride], the normalised cell viability runs as follows: (treatment time: 3 days) 0.944 ± 0.064; (treatment time: 6 days) 0.859 ± 0.077.
As to `CN(C)[C@@H]1C(O)=C(C(N)=O)C(=O)[C@@]2(O)C(O)=C3C(=O)c4c(O)cccc4[C@@](C)(O)[C@H]3[C@H](O)[C@@H]12` [Oxytetracycline dihydrate], the normalised cell viability is, setting by setting: (treatment time: 3 days) 1.03 ± 0.02; (treatment time: 6 days) 1.05 ± 0.052.
Regarding `CC1=C(/C=C/C(C)=C/C=C/C(C)=C\C(=O)O)C(C)(C)CCC1` [Isotretinoin], the normalised cell viability turned out to be 1.01 ± 0.035 (treatment time: 3 days) and 1.02 ± 0.042 (treatment time: 6 days).
As for `CC/C(=C(/CC)c1ccc(O)cc1)c1ccc(O)cc1` [Diethylstilbestrol], the normalised cell viability by setting is: (treatment time: 3 days) 1.05 ± 0.028; (treatment time: 6 days) 1.06 ± 0.11.
As to `CSc1ccc2c(c1)N(CCC1CCCCN1C)c1ccccc1S2` (stereo unspecified) [Thioridazine hydrochloride], the normalised cell viability reads like this: (treatment time: 3 days) 0.334 ± 0.26; (treatment time: 6 days) 0.247 ± 0.14.
With `NC(N)=Nc1nc(CSCC/C(N)=N/S(N)(=O)=O)cs1` [Famotidine], the normalised cell viability is, setting by setting: (treatment time: 3 days) 1.16 ± 0.079; (treatment time: 6 days) 1.1 ± 0.096.
Regarding `Cc1cc(-c2ccccc2)nnc1NCCN1CCOCC1` [Minaprine dihydrochloride], the normalised cell viability by setting is: (treatment time: 3 days) 1.1 ± 0.02; (treatment time: 6 days) 1.03 ± 0.048.
As to `COc1cc(-c2ccc(=O)[nH]n2)ccc1OC(F)F` [Zardaverine], the normalised cell viability is, setting by setting: (treatment time: 3 days) 0.9672 ± 0.0083; (treatment time: 6 days) 0.994 ± 0.028.
Regarding `COc1cc(NC(C)CCCN)c2ncccc2c1` (stereo unspecified) [Primaquine diphosphate], the normalised cell viability came to 0.903 ± 0.036 (treatment time: 3 days) and 0.899 ± 0.089 (treatment time: 6 days).
On the same counts, the results for `CCCCC1(COC(=O)CCC(=O)O)C(=O)N(c2ccccc2)N(c2ccccc2)C1=O` [Suxibuzone] are 1.03 ± 0.074 and 1.03 ± 0.04.
On the same counts, the results for `CCCCNc1c(C(=O)OCC)c(C)nc2c1cnn2CC` [Tracazolate hydrochloride] are 1 ± 0.032 and 1.02 ± 0.034.
For `CC(COc1ccccc1)NC(C)C(O)c1ccc(O)cc1` (stereo unspecified) [Isoxsuprine hydrochloride], in that order: 1.07 ± 0.021 and 1.03 ± 0.062.
Take `CC(C)(C)c1ccc(C(O)CCCN2CCC(C(O)(c3ccccc3)c3ccccc3)CC2)cc1` (stereo unspecified) [Terfenadine]: the normalised cell viability is 0.118 ± 0.0067 (treatment time: 3 days) and 0.103 ± 0.0052 (treatment time: 6 days).
On the same counts, the results for `CCOC(=O)NNc1nncc2ccccc12` [Todralazine hydrochloride] are 0.967 ± 0.082 and 0.955 ± 0.047.
Take `CCCCN1CCCCC1C(=O)Nc1c(C)cccc1C` (stereo unspecified) [Bupivacaine hydrochloride]: the normalised cell viability runs as follows: (treatment time: 3 days) 0.962 ± 0.049; (treatment time: 6 days) 1.03 ± 0.038.
Consider `CCN(CCO)CCCC(C)Nc1ccnc2cc(Cl)ccc12` (stereo unspecified) [Hydroxychloroquine sulfate], for which the normalised cell viability came out at 0.606 ± 0.024 (treatment time: 3 days) and 0.666 ± 0.032 (treatment time: 6 days).
Consider `CC(=O)[C@H]1CC[C@H]2[C@@H]3CC=C4C[C@@H](O)CC[C@]4(C)[C@H]3CC[C@]12C` [Pregnenolone], for which the normalised cell viability (treatment time: 3 days) turned out to be 1 ± 0.067 and the normalised cell viability (treatment time: 6 days) was determined as 1.07 ± 0.12.
`COc1ccc(CC2c3cc(OC)c(OC)cc3CC[N+]2(C)CCC(=O)OCCCCCOC(=O)CC[N+]2(C)CCc3cc(OC)c(OC)cc3C2Cc2ccc(OC)c(OC)c2)cc1OC` (stereo unspecified) [Atracurium besylate]: the normalised cell viability (treatment time: 3 days) turned out to be 0.89 ± 0.068 and the normalised cell viability (treatment time: 6 days) was determined as 0.98 ± 0.059.
With `CN(C)CCCN1c2ccccc2Sc2ccc(Cl)cc21` [Chlorpromazine hydrochloride], the normalised cell viability is, setting by setting: (treatment time: 3 days) 0.692 ± 0.051; (treatment time: 6 days) 0.734 ± 0.011.
As for `CCOc1ccccc1OC(c1ccccc1)C1CNCCO1` (stereo unspecified) [Reboxetine mesylate], the normalised cell viability is 0.969 ± 0.019 (treatment time: 3 days) and 1.05 ± 0.036 (treatment time: 6 days).
With `C[C@@H]1C[C@H]2[C@@H]3C[C@H](F)C4=CC(=O)C=C[C@]4(C)[C@@]3(F)[C@@H](O)C[C@]2(C)[C@@]1(O)C(=O)COC(=O)C(C)(C)C` [Flumethasone pivalate], the normalised cell viability is, setting by setting: (treatment time: 3 days) 0.991 ± 0.015; (treatment time: 6 days) 1.03 ± 0.08.
As for `Nc1ccc(S(=O)(=O)Nc2ccccn2)cc1` [Sulfapyridine], the normalised cell viability (treatment time: 3 days) came to 0.987 ± 0.038 and the normalised cell viability (treatment time: 6 days) was found to be 1.01 ± 0.021.
On the same counts, the results for `Nc1ccn([C@@H]2O[C@H](CO)[C@@H](O)[C@@H]2O)c(=O)n1` [Cytarabine] are 0.221 ± 0.004 and 0.271 ± 0.031.
Regarding `COc1ccnc(C[S+]([O-])c2nc3cc(OC(F)F)ccc3[nH]2)c1OC` (stereo unspecified) [Pantoprazole sodium], the normalised cell viability by setting is: (treatment time: 3 days) 0.964 ± 0.042; (treatment time: 6 days) 1.03 ± 0.037.
For the compound `O=C(O)[C@H]1/C(=C/CO)O[C@@H]2CC(=O)N21` [Potassium clavulanate], the normalised cell viability by setting is: (treatment time: 3 days) 1.01 ± 0.029; (treatment time: 6 days) 0.9843 ± 0.0039.
For `O=C(OCCOCCO)c1ccccc1Nc1cccc(C(F)(F)F)c1` [Etofenamate], the normalised cell viability (treatment time: 3 days) is 0.988 ± 0.045 and the normalised cell viability (treatment time: 6 days) came to 0.987 ± 0.061.
On the same counts, the results for `Cc1cnc(C(=O)O)c[n+]1[O-]` [Acipimox] are 1.07 ± 0.017 and 1.05 ± 0.023.
For `COc1ccc(CN2CCN(C(c3ccc(F)cc3)c3ccc(F)cc3)CC2)c(OC)c1OC` [Lomerizine hydrochloride], in that order: 0.874 ± 0.023 and 0.879 ± 0.045.
On to `COc1ccc(C(=O)c2ccccc2O)c(O)c1` [Dioxybenzone], for which the normalised cell viability came to 1.04 ± 0.03 (treatment time: 3 days) and 1.09 ± 0.051 (treatment time: 6 days).
For `CC(C)(C)NC[C@H](O)COc1ccccc1C1CCCC1` [Penbutolol sulfate], in that order: 0.819 ± 0.085 and 0.89 ± 0.079.
As for `Nc1nc2[nH]cc(CCc3ccc(C(=O)N[C@@H](CCC(=O)O)C(=O)O)cc3)c2c(=O)[nH]1` [Pemetrexed disodium], the normalised cell viability (treatment time: 3 days) came out at 0.509 ± 0.057 and the normalised cell viability (treatment time: 6 days) was determined as 0.511 ± 0.045.
`CCOc1ccc(NC(C)=O)cc1` [Phenacetin]: the normalised cell viability turned out to be 1.049 ± 0.0076 (treatment time: 3 days) and 1.06 ± 0.017 (treatment time: 6 days).
